Reference: PubChem BioAssay AID624202 (National Center for Advancing Translational Sciences (NCATS), 2012)
Out of some 380,000 compounds screened, about 4,000 (1.1%) were called active. Inconclusive means that the source gave no clear call. Such entries were picked first, then a sample of the others. Calls come from the whole dose curve; as a rule, active = well fitted activation curve with a large enough effect; inconclusive = small, poorly fitted or top-dose-only effect; inactive = no such curve, though single readings can be large or run the other way. Potencies of inconclusive entries are doubtful fits and often do not repeat.

experiment: qHTS Assay to Identify Small Molecule Activators of BRCA1 Expression; conditions: MCF7-BRCA1-FFLuc reporter, luminescence, 48 h; activation: at 46.1 µM (top of the series), scaled: vehicle 0%, 10 µM genistein 100% unless noted; note: nearly all actives have a fitted effect of over 80% in size
Procedure, shortened: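 MCF7 cells carrying a BRCA1-firefly luciferase reporter (2000 cells/well, phenol-red free MEM) were attached for 2 h at 37 °C, then given compounds for 48 h. Luminescence was read 15 min after luciferase reagent; activity normalized to genistein (10 microM) and DMSO.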
Potency is the fitted concentration of half-maximal effect; tags give direction and shape of the fitted curve.

SMILES | Potency | activation
Cc1ccc(NC(=O)CN(C)S(=O)(=O)c2ccc(Cl)s2)c(O)c1 | inconclusive: 11.2 µM [activator, partial curve, poor fit] | –
CC(=O)N1CCN(C(=O)c2ccc(-c3ccccc3Cl)o2)CC1 | active: 11.2 µM | –
O=C(NC(=S)Nc1cccc(O)c1)c1ccco1 | inconclusive: 7.08 µM [activator, partial curve, poor fit] | –
O=C(Nc1nccs1)c1ccc(-c2ccc(Cl)cc2)o1 | inconclusive: 0.631 µM [activator, full curve, poor fit] | –
O=C(NCCc1ccccc1)c1cnc2ccccc2n1 | inconclusive: 1.41 µM [activator, full curve, poor fit] | –
CCCCC(CCCC)c1ccc(C=Nc2ccc(/C=C/c3ccnc4ccccc34)cc2)cc1 | – | inactive: 11%
CCCCOC(=O)Nc1cccc(Cl)c1C | inconclusive: 35.5 µM [activator, single point] | –
O=C(Nc1ccc2[nH]ncc2c1)c1ccccc1 | inconclusive: 8.91 µM [activator, partial curve, poor fit] | –
O=C(NCC(=O)N1CCN(c2ncccn2)CC1)c1ccccc1F | active: 7.94 µM | –
CC(=O)NNc1ncnc2c1cnn2-c1ccc(C)c(Cl)c1 | inconclusive: 11.2 µM [activator, partial curve, poor fit] | –
CCCCN(C(=O)c1cnc(C)cn1)c1c(N)n(CCC)c(=O)[nH]c1=O | – | inactive: -10.1%
Cc1csc2nc(CNC(=O)c3ccco3)cn12 | inconclusive: 12.6 µM [activator, partial curve, poor fit] | –
O=C(CC1CCCCC1)Nc1nc2ccccc2s1 | inconclusive: 1.26 µM [activator, full curve, poor fit] | –
O=[N+]([O-])c1ccc2nc(-c3ccc(Cl)cc3)n(OCc3ccccc3)c2c1 | inconclusive: 1.26 µM [activator, full curve, poor fit] | –
COc1cccc(OCc2cc(C(=O)N(C)Cc3nc4ccccc4[nH]3)no2)c1 | – | inactive: 86%
CCc1nc(SCC(=O)Nc2nnc(C(C)C)s2)n[nH]1 | – | inactive: 60.1%
COC(=O)c1c(-c2cccnc2)csc1NC(=O)c1ccc2c(c1)OCO2 | active: 2.24 µM | –
CCOC(=O)C1(Cc2ccccc2Cl)CCN(C(=O)c2cnccn2)CC1 | inconclusive: 12.6 µM [activator, partial curve, poor fit] | –
CCN1CCN(C(=S)NCCc2ccccc2)CC1 | inconclusive: 12.6 µM [activator, partial curve, poor fit] | –
CC(C)C(=O)Nc1ccc(NC(=O)c2cccc(F)c2)cn1 | inconclusive: 11.2 µM [activator, partial curve, poor fit] | –
Cc1c(-c2ccccc2)n[nH]c1C(=O)NN | inconclusive: 35.5 µM [activator, single point] | –
O=Cc1cn(-c2ccccc2)nc1-c1ccc2c(c1)OCCO2 | inconclusive: 2 µM [activator, partial curve, poor fit] | –
S=C(NCCc1ccccc1)Nc1ccccn1 | active: 10 µM | –

SMILES | Potency | activation
Cc1csc(NC(=O)c2cccn2C)n1 | inconclusive: 11.2 µM [activator, partial curve, poor fit] | –
O=C(NCc1ccco1)c1cc(-c2cccc(Cl)c2)on1 | inconclusive: 12.6 µM [activator, partial curve, poor fit] | –
CCNC(=O)c1sc2cc(C)ccc2c1Cl | active: 7.08 µM | –
O=C(Nc1nc(-c2nc3ccccc3s2)cs1)C1CC1 | inconclusive: 1.12 µM [activator, full curve, poor fit] | –
C[C@H]1CN([C@@H](C)CO)S(=O)(=O)c2ccc(C#Cc3ccccn3)cc2O[C@H]1CN(C)Cc1ccc(F)cc1 | – | inactive: -7.44%
O=C(C1=C(O)C(=O)N(CCN2CCOCC2)C1c1cccc([N+](=O)[O-])c1)c1cccs1 (stereo unspecified) | – | inactive: -1.41%
COc1cccc(-c2nc(=S)c3c(o2)CCCC3)c1 | inconclusive: 35.5 µM [activator, single point] | –
C/C(Cl)=C/Cn1c(SCC(C)C)nc2c1c(=O)[nH]c(=O)n2C | – | inactive: 12.4%
Cc1cc(C(F)(F)F)nn1CC(=O)Nc1cccnc1 | – | inactive: 4.43%
CCCc1cc(C(=O)NCc2ccccc2)no1 | inconclusive: 15.8 µM [activator, partial curve, poor fit] | –
CCOC(=O)/C(N=Nc1ccc2c(c1)OCO2)=C(\C)O | inconclusive: 6.31 µM [activator, partial curve, poor fit] | –
O=C(N/N=C/c1ccc(OC(=O)c2ccccc2Cl)cc1)c1ccccn1 | inconclusive: 11.2 µM [activator, partial curve, poor fit] | –
c1ccc2c(Nc3nc4c(s3)CCCC4)cccc2c1 | inconclusive: 35.5 µM [activator, single point] | –
CC(=O)Nc1cccc(N(C)S(C)(=O)=O)c1 | – | inactive: 11.5%
Clc1nc2ccccc2cc1-c1nnn(-c2ccccc2)n1 | inconclusive: 2.82 µM [activator, partial curve, poor fit] | –
O=S(=O)(Nc1cccc(-c2ccc(N3CCCCCC3)nn2)c1)c1ccc(F)cc1 | inconclusive: 35.5 µM [activator, single point] | –
COc1ccc(C/C(C)=N/NC(=S)Nc2ccccc2F)cc1 | inconclusive: 25.1 µM [activator, single point] | –
Cc1nc2n(c(=O)c1CCN1CCC(c3noc4cc(F)ccc34)CC1)CCC[C@@H]2O | – | inactive: 1.74%
Cc1cccc(Nc2ccc(C(=O)N3CCOCC3)cn2)c1 | inconclusive: 35.5 µM [activator, single point] | –
O=C(NC(=S)NCCc1ccccn1)c1ccco1 | inconclusive: 35.5 µM [activator, single point] | –
Cc1[nH]nc2ncc(C(=O)c3ccccc3O)cc12 | – | inactive: 12%
COc1cc(OC)cc(-c2cc3ccc(F)cc3cn2)c1 | inconclusive: 3.98 µM [activator, partial curve, poor fit] | –
O=c1cc(CN2CCN(S(=O)(=O)c3cccc(Cl)c3)CC2)c2ccc(O)cc2o1 | – | inactive: 0%
